Experimental data published in patent US20210260163A1.

Target: 589A knob HC-IL2 half (SEQ ID NO: 209 with light chain SEQ ID NO: 216) of the 589A-IL-2 prodrugs (human)
Test: cell-based or functional assay

Binder	CTLL2 Activity EC50 (nM), Activated, 589A-IL-2C [nM]	CTLL2 Activity EC50 (nM), Not activated, 589A-IL-2C [nM]	CTLL2 Activity EC50 (nM), Activated, 589A-IL-2E [nM]
589A hole HC-mask half of 589A-IL-2C (SEQ ID NO: 212 with light chain SEQ ID NO: 216) (protein) heavy: EVQLVESGGGLVKPGGSLRLSCAVSGFYFNRGYWICWVRQAPGKGLEWIGCIDTGSGVPYYANWAKGRFTISRHTSKTTLTLQMNSLRAEDTASYFCARNSDSIYFNLWGPGTLVTVSS[no letters for human IgG1 constant region with Y407T (EU numbers)]GGGGSLSGRSDNHGGGGSGGGGSGGGGSAVNGTSQFTCFYNSRANISCVWSQDGALQDTSCQVHAWPDRRRWNQTCELLPVSQASWACNLILGAPDSQKLTTVDIVTLRVLCREGVRWRVMAIQDFKPFENLRLMAPISLQVVHVETHRCNISWEISQASHYFERHLEFEARTLSPGHTWEEAPLLTLKQKQEWICLETLTPDTQYEFQVRVKPLQGEFTTWSPWSQPLAFRTKPAALGKDT light: DIQMTQSPSSVSASVGDRVTITCQASQSIGGYISWYQQKPGQPPKLLIYKASTLASGVPSRFKGSGSGTDFTLTISSLDSEDAATYYCQNYAGVSIYGAVFGGGTKVVVKRTVAAPSVFIFPPSDEQLKSGTASVVCLLNNFYPREAKVQWKVDNALQSGNSQESVTEQDSKDSTYSLSSTLTLSKADYEKHKVYACEVTHQGLSSPVTKSFNRGEC	218	8320	–
589A hole HC-mask half of 589A-IL-2E (SEQ ID NO: 214 with light chain SEQ ID NO: 216) (protein) heavy: DIQMTQSPSSVSASVGDRVTITCQASQSIGGYLSWYQQKPGQPPKLLIYKASTLASGVPSRFKGSGSGTDFTLTISSLDSEDAATYYCQNYAGVSIYGAVFGGGTKVVVKRTVAAPSVFIFPPSDEQLKSGTASVVCLLNNFYPREAKVQWKVDNALQSGNSQESVTEQDSKDSTYSLSSTLTLSKADYEKHKVYACEVTHQGLSSPVTKSFNRGECEVQLVESGGGLVKPGGSLRLSCAVSGFYFNRGYWICWVRQAPGKGLEWIGCIDTGSGVPYYANWAKGRFTISRHTSKTTLTLQMNSLRAEDTASYFCARNSDSIYFNLWGPGTLVTVSS[no letters for human IgG1 constant region with Y407T (EU numbers)]GGGGSLSGRSDNHGGGGSAVNGTSQFTCFYNSRANISCVWSQDGALQDTSCQVHAWPDRRRWNQTCELLPVSQASWACNLILGAPDSQKLTTVDIVTLRVLCREGVRWRVMAIQDFKPFENLRLMAPISLQVVHVETHRCNISWEISQASHYFERHLEFEARTLSPGHTWEEAPLLTLKQKQEWICLETLTPDTQYEFQVRVKPLQGEFTTWSPWSQPLAFRTKPAALGKDT light: DIQMTQSPSSVSASVGDRVTITCQASQSIGGYISWYQQKPGQPPKLLIYKASTLASGVPSRFKGSGSGTDFTLTISSLDSEDAATYYCQNYAGVSIYGAVFGGGTKVVVKRTVAAPSVFIFPPSDEQLKSGTASVVCLLNNFYPREAKVQWKVDNALQSGNSQESVTEQDSKDSTYSLSSTLTLSKADYEKHKVYACEVTHQGLSSPVTKSFNRGEC	–	–	55
